# Test results published in paper PMC9911399, “Two distinct binding modes provide the RNA-binding protein RbFox with extraordinary sequence specificity”.
# Substitutions are numbered along the chain they refer to; changes in the protein carry UniProt numbers. The list shows a part of the results.
# T1: RBFOX1 RRM RbFoxmut (Fox-RRM*) (Homo sapiens, UniProt Q9NWB1 109-208, R118D;E147R;N151S;E152T)
# T1 sequence: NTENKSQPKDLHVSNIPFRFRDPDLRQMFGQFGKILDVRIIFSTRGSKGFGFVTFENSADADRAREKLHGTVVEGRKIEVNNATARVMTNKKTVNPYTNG
# B1: GAGCGCU (DNA:RNA)
# RNA: GGGAGACCGGAAUUCAGAUUGUCCGAGCGCUUUAAAUCCCGUCGUAGCCACCA
# DNA 1: CAATCTGAATTCCGGTCTCCC
# DNA 2: TGGTGGCTACGACGGGATT
# B2: UCGUGUC (DNA:RNA)
# RNA: B1 RNA with G25U, A26C, C28U, C30U, U31C
# DNA 1: CAATCTGAATTCCGGTCTCCC
# DNA 2: TGGTGGCTACGACGGGATT
# B3: GAUAGCC (DNA:RNA)
# RNA: B1 RNA with G27U, C28A, U31C
# DNA 1: CAATCTGAATTCCGGTCTCCC
# DNA 2: TGGTGGCTACGACGGGATT
# B4: AAAGUCU (DNA:RNA)
# RNA: B1 RNA with G25A, G27A, C28G, G29U
# DNA 1: CAATCTGAATTCCGGTCTCCC
# DNA 2: TGGTGGCTACGACGGGATT
# B5: AACCAAA (DNA:RNA)
# RNA: B1 RNA with G25A, G27C, G29A, C30A, U31A
# DNA 1: CAATCTGAATTCCGGTCTCCC
# DNA 2: TGGTGGCTACGACGGGATT
# B6: CUUGGUG (DNA:RNA)
# RNA: B1 RNA with G25C, A26U, G27U, C28G, C30U, U31G
# DNA 1: CAATCTGAATTCCGGTCTCCC
# DNA 2: TGGTGGCTACGACGGGATT
# B7: UACACGC (DNA:RNA)
# RNA: B1 RNA with G25U, G27C, C28A, G29C, C30G, U31C
# DNA 1: CAATCTGAATTCCGGTCTCCC
# DNA 2: TGGTGGCTACGACGGGATT
# B8: UCCAGAG (DNA:RNA)
# RNA: B1 RNA with G25U, A26C, G27C, C28A, C30A, U31G
# DNA 1: CAATCTGAATTCCGGTCTCCC
# DNA 2: TGGTGGCTACGACGGGATT
# B9: CCCCCUU (DNA:RNA)
# RNA: B1 RNA with G25C, A26C, G27C, G29C, C30U
# DNA 1: CAATCTGAATTCCGGTCTCCC
# DNA 2: TGGTGGCTACGACGGGATT
# B10: GGAGGCC (DNA:RNA)
# RNA: B1 RNA with A26G, G27A, C28G, U31C
# DNA 1: CAATCTGAATTCCGGTCTCCC
# DNA 2: TGGTGGCTACGACGGGATT
# B11: GUGCGCC (DNA:RNA)
# RNA: B1 RNA with A26U, U31C
# DNA 1: CAATCTGAATTCCGGTCTCCC
# DNA 2: TGGTGGCTACGACGGGATT
# B12: UGAGAUU (DNA:RNA)
# RNA: B1 RNA with G25U, A26G, G27A, C28G, G29A, C30U
# DNA 1: CAATCTGAATTCCGGTCTCCC
# DNA 2: TGGTGGCTACGACGGGATT
# B13: ACGGUGU (DNA:RNA)
# RNA: B1 RNA with G25A, A26C, C28G, G29U, C30G
# DNA 1: CAATCTGAATTCCGGTCTCCC
# DNA 2: TGGTGGCTACGACGGGATT
# B14: CACCAAU (DNA:RNA)
# RNA: B1 RNA with G25C, G27C, G29A, C30A
# DNA 1: CAATCTGAATTCCGGTCTCCC
# DNA 2: TGGTGGCTACGACGGGATT
# B15: AUCGCCA (DNA:RNA)
# RNA: B1 RNA with G25A, A26U, G27C, C28G, G29C, U31A
# DNA 1: CAATCTGAATTCCGGTCTCCC
# DNA 2: TGGTGGCTACGACGGGATT
# B16: GAUGGGU (DNA:RNA)
# RNA: B1 RNA with G27U, C28G, C30G
# DNA 1: CAATCTGAATTCCGGTCTCCC
# DNA 2: TGGTGGCTACGACGGGATT
# B17: UACUUUC (DNA:RNA)
# RNA: B1 RNA with G25U, G27C, C28U, G29U, C30U, U31C
# DNA 1: CAATCTGAATTCCGGTCTCCC
# DNA 2: TGGTGGCTACGACGGGATT
# B18: UUGUGAC (DNA:RNA)
# RNA: B1 RNA with G25U, A26U, C28U, C30A, U31C
# DNA 1: CAATCTGAATTCCGGTCTCCC
# DNA 2: TGGTGGCTACGACGGGATT
# B19: CUCCUGU (DNA:RNA)
# RNA: B1 RNA with G25C, A26U, G27C, G29U, C30G
# DNA 1: CAATCTGAATTCCGGTCTCCC
# DNA 2: TGGTGGCTACGACGGGATT
# B20: CACUUUU (DNA:RNA)
# RNA: B1 RNA with G25C, G27C, C28U, G29U, C30U
# DNA 1: CAATCTGAATTCCGGTCTCCC
# DNA 2: TGGTGGCTACGACGGGATT
# B21: UCCUAUG (DNA:RNA)
# RNA: GGGAGACCGGAAUUCAGAUUGUCCUCCUAUGUUAAAUCCCGUCGUAGCCACCA
# DNA 1: CAATCTGAATTCCGGTCTCCC
# DNA 2: TGGTGGCTACGACGGGATT
# B22: AUUGUGC (DNA:RNA)
# RNA: GGGAGACCGGAAUUCAGAUUGUCCAUUGUGCUUAAAUCCCGUCGUAGCCACCA
# DNA 1: CAATCTGAATTCCGGTCTCCC
# DNA 2: TGGTGGCTACGACGGGATT
# B23: CAUGUUA (DNA:RNA)
# RNA: B22 RNA with A25C, U26A, G30U, C31A
# DNA 1: CAATCTGAATTCCGGTCTCCC
# DNA 2: TGGTGGCTACGACGGGATT
# B24: UCCCGAA (DNA:RNA)
# RNA: B21 RNA with U28C, A29G, U30A, G31A
# DNA 1: CAATCTGAATTCCGGTCTCCC
# DNA 2: TGGTGGCTACGACGGGATT
# B25: UCGUCAC (DNA:RNA)
# RNA: B21 RNA with C27G, A29C, U30A, G31C
# DNA 1: CAATCTGAATTCCGGTCTCCC
# DNA 2: TGGTGGCTACGACGGGATT
# B26: AUAGACA (DNA:RNA)
# RNA: B22 RNA with U27A, U29A, G30C, C31A
# DNA 1: CAATCTGAATTCCGGTCTCCC
# DNA 2: TGGTGGCTACGACGGGATT
# B27: ACGGGAG (DNA:RNA)
# RNA: B22 RNA with U26C, U27G, U29G, G30A, C31G
# DNA 1: CAATCTGAATTCCGGTCTCCC
# DNA 2: TGGTGGCTACGACGGGATT
# B28: GCAAUAC (DNA:RNA)
# RNA: B22 RNA with A25G, U26C, U27A, G28A, G30A
# DNA 1: CAATCTGAATTCCGGTCTCCC
# DNA 2: TGGTGGCTACGACGGGATT
# B29: ACCCGUA (DNA:RNA)
# RNA: B21 RNA with U25A, U28C, A29G, G31A
# DNA 1: CAATCTGAATTCCGGTCTCCC
# DNA 2: TGGTGGCTACGACGGGATT
# B30: GCUAGCU (DNA:RNA)
# RNA: B1 RNA with A26C, G27U, C28A
# DNA 1: CAATCTGAATTCCGGTCTCCC
# DNA 2: TGGTGGCTACGACGGGATT
# B31: UUGUGCC (DNA:RNA)
# RNA: B1 RNA with G25U, A26U, C28U, U31C
# DNA 1: CAATCTGAATTCCGGTCTCCC
# DNA 2: TGGTGGCTACGACGGGATT
# Molecular target: T1, RBFOX1 RRM RbFoxmut (Fox-RRM*)
# Test: EMSA; HiTS-Eq, 1 nM pool, 10 min; buffer printed only for the single-RNA assays: 10 mM Tris pH 7.5, 150 mM NaCl, 3.4 mM EDTA, 0.001% NP-40, 30 C
# Conditions: tags: His6 N-terminal (pET28a); label: 5' 32P
# Method in brief: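 Purified RbFox RRM, wild type or mutant, was incubated for 10 min in 50 µL with 1 nM of a 5′-radiolabelled RNA pool carrying 7 randomized nucleotides, whose flanks were annealed to DNA oligonucleotides, over a series of increasing protein concentrations. Unbound RNA was resolved on 8% native PAGE, cut out, reverse-transcribed, barcoded by PCR and sequenced on an Illumina HiSeq 2500. Relative association constants were derived from changes in read counts for each RNA species versus the control reaction and normalised to the cognate motif.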
row,Binder,binding signal
1,B1,0.0709 KA relative to UGCAUGU
2,B2,0.359 KA relative to UGCAUGU
3,B3,0.118 KA relative to UGCAUGU
4,B4,0.0626 KA relative to UGCAUGU
5,B5,0.0907 KA relative to UGCAUGU
6,B6,0.131 KA relative to UGCAUGU
7,B7,0.058 KA relative to UGCAUGU
8,B8,0.107 KA relative to UGCAUGU
9,B9,0.0626 KA relative to UGCAUGU
10,B10,0.104 KA relative to UGCAUGU
11,B11,0.153 KA relative to UGCAUGU
12,B12,0.104 KA relative to UGCAUGU
13,B13,0.14 KA relative to UGCAUGU
14,B14,0.0482 KA relative to UGCAUGU
15,B15,0.124 KA relative to UGCAUGU
16,B16,0.077 KA relative to UGCAUGU

row,Binder,binding signal
1,B17,0.0804 KA relative to UGCAUGU
2,B18,0.052 KA relative to UGCAUGU
3,B19,0.0704 KA relative to UGCAUGU
4,B20,0.0858 KA relative to UGCAUGU
5,B21,0.141 KA relative to UGCAUGU
6,B22,0.191 KA relative to UGCAUGU
7,B23,0.109 KA relative to UGCAUGU
8,B24,0.066 KA relative to UGCAUGU
9,B25,0.106 KA relative to UGCAUGU
10,B26,0.0765 KA relative to UGCAUGU
11,B27,0.119 KA relative to UGCAUGU
12,B28,0.0774 KA relative to UGCAUGU
13,B29,0.131 KA relative to UGCAUGU
14,B30,0.0867 KA relative to UGCAUGU
15,B31,0.46 KA relative to UGCAUGU
